Reference: paper PMC9911399, “Two distinct binding modes provide the RNA-binding protein RbFox with extraordinary sequence specificity”
Numbering of substitutions follows the chain as printed; changes in the protein carry UniProt numbers. The list shows a part of the results.

T1: RBFOX1 RRM RbFoxmut (Fox-RRM*) (Homo sapiens, UniProt Q9NWB1 109-208, R118D;E147R;N151S;E152T)
T1 sequence: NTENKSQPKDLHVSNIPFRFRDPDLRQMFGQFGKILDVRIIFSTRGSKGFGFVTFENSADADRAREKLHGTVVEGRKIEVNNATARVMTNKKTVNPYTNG

B1: CUAUCAC (DNA:RNA)
RNA: GGGAGACCGGAAUUCAGAUUGUCCCUAUCACUUAAAUCCCGUCGUAGCCACCA
DNA 1: CAATCTGAATTCCGGTCTCCC
DNA 2: TGGTGGCTACGACGGGATT
B2: AUACCCU (DNA:RNA)
RNA: B1 RNA with C25A, U28C, A30C, C31U
DNA 1: CAATCTGAATTCCGGTCTCCC
DNA 2: TGGTGGCTACGACGGGATT
B3: CAUCACA (DNA:RNA)
RNA: B1 RNA with U26A, A27U, U28C, C29A, A30C, C31A
DNA 1: CAATCTGAATTCCGGTCTCCC
DNA 2: TGGTGGCTACGACGGGATT
B4: GUAUGUA (DNA:RNA)
RNA: B1 RNA with C25G, C29G, A30U, C31A
DNA 1: CAATCTGAATTCCGGTCTCCC
DNA 2: TGGTGGCTACGACGGGATT
B5: GACGGAA (DNA:RNA)
RNA: B1 RNA with C25G, U26A, A27C, U28G, C29G, C31A
DNA 1: CAATCTGAATTCCGGTCTCCC
DNA 2: TGGTGGCTACGACGGGATT
B6: CACAGGG (DNA:RNA)
RNA: B1 RNA with U26A, A27C, U28A, C29G, A30G, C31G
DNA 1: CAATCTGAATTCCGGTCTCCC
DNA 2: TGGTGGCTACGACGGGATT
B7: GGACUAU (DNA:RNA)
RNA: B1 RNA with C25G, U26G, U28C, C29U, C31U
DNA 1: CAATCTGAATTCCGGTCTCCC
DNA 2: TGGTGGCTACGACGGGATT
B8: UCGCAGC (DNA:RNA)
RNA: B1 RNA with C25U, U26C, A27G, U28C, C29A, A30G
DNA 1: CAATCTGAATTCCGGTCTCCC
DNA 2: TGGTGGCTACGACGGGATT
B9: AAGACCU (DNA:RNA)
RNA: B1 RNA with C25A, U26A, A27G, U28A, A30C, C31U
DNA 1: CAATCTGAATTCCGGTCTCCC
DNA 2: TGGTGGCTACGACGGGATT
B10: UAAAGCA (DNA:RNA)
RNA: B1 RNA with C25U, U26A, U28A, C29G, A30C, C31A
DNA 1: CAATCTGAATTCCGGTCTCCC
DNA 2: TGGTGGCTACGACGGGATT
B11: AGUGUGU (DNA:RNA)
RNA: GGGAGACCGGAAUUCAGAUUGUCCAGUGUGUUUAAAUCCCGUCGUAGCCACCA
DNA 1: CAATCTGAATTCCGGTCTCCC
DNA 2: TGGTGGCTACGACGGGATT
B12: GCAACUG (DNA:RNA)
RNA: B1 RNA with C25G, U26C, U28A, A30U, C31G
DNA 1: CAATCTGAATTCCGGTCTCCC
DNA 2: TGGTGGCTACGACGGGATT
B13: UACCCAG (DNA:RNA)
RNA: B1 RNA with C25U, U26A, A27C, U28C, C31G
DNA 1: CAATCTGAATTCCGGTCTCCC
DNA 2: TGGTGGCTACGACGGGATT
B14: GGGUGUA (DNA:RNA)
RNA: B11 RNA with A25G, U27G, G28U, U29G, G30U, U31A
DNA 1: CAATCTGAATTCCGGTCTCCC
DNA 2: TGGTGGCTACGACGGGATT
B15: AUCUAGA (DNA:RNA)
RNA: B11 RNA with G26U, U27C, G28U, U29A, U31A
DNA 1: CAATCTGAATTCCGGTCTCCC
DNA 2: TGGTGGCTACGACGGGATT
B16: GGCCCUC (DNA:RNA)
RNA: B1 RNA with C25G, U26G, A27C, U28C, A30U
DNA 1: CAATCTGAATTCCGGTCTCCC
DNA 2: TGGTGGCTACGACGGGATT
B17: AUCUGAU (DNA:RNA)
RNA: B1 RNA with C25A, A27C, C29G, C31U
DNA 1: CAATCTGAATTCCGGTCTCCC
DNA 2: TGGTGGCTACGACGGGATT
B18: CACACGC (DNA:RNA)
RNA: B1 RNA with U26A, A27C, U28A, A30G
DNA 1: CAATCTGAATTCCGGTCTCCC
DNA 2: TGGTGGCTACGACGGGATT
B19: CGUCGGG (DNA:RNA)
RNA: B11 RNA with A25C, G28C, U29G, U31G
DNA 1: CAATCTGAATTCCGGTCTCCC
DNA 2: TGGTGGCTACGACGGGATT
B20: CAUACUC (DNA:RNA)
RNA: B1 RNA with U26A, A27U, U28A, A30U
DNA 1: CAATCTGAATTCCGGTCTCCC
DNA 2: TGGTGGCTACGACGGGATT
B21: UUUCAGG (DNA:RNA)
RNA: B11 RNA with A25U, G26U, G28C, U29A, U31G
DNA 1: CAATCTGAATTCCGGTCTCCC
DNA 2: TGGTGGCTACGACGGGATT
B22: CGACAAG (DNA:RNA)
RNA: B1 RNA with U26G, U28C, C29A, C31G
DNA 1: CAATCTGAATTCCGGTCTCCC
DNA 2: TGGTGGCTACGACGGGATT
B23: GGUAGAG (DNA:RNA)
RNA: B11 RNA with A25G, G28A, U29G, G30A, U31G
DNA 1: CAATCTGAATTCCGGTCTCCC
DNA 2: TGGTGGCTACGACGGGATT
B24: AGGGGCC (DNA:RNA)
RNA: B11 RNA with U27G, U29G, G30C, U31C
DNA 1: CAATCTGAATTCCGGTCTCCC
DNA 2: TGGTGGCTACGACGGGATT
B25: GCACAGC (DNA:RNA)
RNA: B1 RNA with C25G, U26C, U28C, C29A, A30G
DNA 1: CAATCTGAATTCCGGTCTCCC
DNA 2: TGGTGGCTACGACGGGATT
B26: UGACAAG (DNA:RNA)
RNA: B1 RNA with C25U, U26G, U28C, C29A, C31G
DNA 1: CAATCTGAATTCCGGTCTCCC
DNA 2: TGGTGGCTACGACGGGATT
B27: UCGGACA (DNA:RNA)
RNA: B11 RNA with A25U, G26C, U27G, U29A, G30C, U31A
DNA 1: CAATCTGAATTCCGGTCTCCC
DNA 2: TGGTGGCTACGACGGGATT
B28: GCCUGUA (DNA:RNA)
RNA: B1 RNA with C25G, U26C, A27C, C29G, A30U, C31A
DNA 1: CAATCTGAATTCCGGTCTCCC
DNA 2: TGGTGGCTACGACGGGATT
B29: CUACUGA (DNA:RNA)
RNA: B1 RNA with U28C, C29U, A30G, C31A
DNA 1: CAATCTGAATTCCGGTCTCCC
DNA 2: TGGTGGCTACGACGGGATT
B30: AAAUCUC (DNA:RNA)
RNA: B1 RNA with C25A, U26A, A30U
DNA 1: CAATCTGAATTCCGGTCTCCC
DNA 2: TGGTGGCTACGACGGGATT
B31: CAAUUGU (DNA:RNA)
RNA: B11 RNA with A25C, G26A, U27A, G28U
DNA 1: CAATCTGAATTCCGGTCTCCC
DNA 2: TGGTGGCTACGACGGGATT

The binders below were run against T1, RBFOX1 RRM RbFoxmut (Fox-RRM*) (assay: EMSA; HiTS-Eq, 1 nM pool, 10 min; buffer printed only for the single-RNA assays: 10 mM Tris pH 7.5, 150 mM NaCl, 3.4 mM EDTA, 0.001% NP-40, 30 C). Conditions: tags: His6 N-terminal (pET28a); label: 5' 32P.
Procedure, shortened: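 These values rest on relative association constants, computed from read-count changes of each RNA species versus the control reaction and normalised to the cognate motif. Reads came from free RNA recovered by 8% native PAGE after purified RbFox RRM (wild type or mutant) at increasing concentrations was equilibrated for 10 min in 50 µL with 1 nM of a 5′-radiolabelled pool with 7 randomized nucleotides and DNA-annealed flanks.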
In the case of B1, the binding signal is reported as 0.0822 KA relative to UGCAUGU. With B2 the binding signal was 0.0902 KA relative to UGCAUGU. For B3, the binding signal was 0.179 KA relative to UGCAUGU. B4 was tested, and the binding signal was 0.63 KA relative to UGCAUGU. With B5 the binding signal was 0.11 KA relative to UGCAUGU. In the case of B6, the binding signal is reported as 0.0686 KA relative to UGCAUGU. For B7, the binding signal was 0.0847 KA relative to UGCAUGU. For B8, the binding signal was 0.0941 KA relative to UGCAUGU. With B9 the binding signal was 0.0678 KA relative to UGCAUGU. In the case of B10, the binding signal is reported as 0.1 KA relative to UGCAUGU. In the case of B11, the binding signal is reported as 0.199 KA relative to UGCAUGU. In the case of B12, the binding signal is reported as 0.0599 KA relative to UGCAUGU. B13 was tested, and the binding signal was 0.102 KA relative to UGCAUGU. With B14 the binding signal was 0.222 KA relative to UGCAUGU. For B15, the binding signal was 0.103 KA relative to UGCAUGU. In the case of B16, the binding signal is reported as 0.0657 KA relative to UGCAUGU. With B17 the binding signal was 0.0592 KA relative to UGCAUGU. B18 was tested, and the binding signal was 0.0754 KA relative to UGCAUGU. B19 was tested, and the binding signal was 0.104 KA relative to UGCAUGU. B20 was tested, and the binding signal was 0.0699 KA relative to UGCAUGU. With B21 the binding signal was 0.0759 KA relative to UGCAUGU. B22 was tested, and the binding signal was 0.0779 KA relative to UGCAUGU. With B23 the binding signal was 0.0945 KA relative to UGCAUGU. With B24 the binding signal was 0.241 KA relative to UGCAUGU. For B25, the binding signal was 0.0832 KA relative to UGCAUGU. In the case of B26, the binding signal is reported as 0.0763 KA relative to UGCAUGU. In the case of B27, the binding signal is reported as 0.0461 KA relative to UGCAUGU. B28 was tested, and the binding signal was 0.258 KA relative to UGCAUGU. B29 was tested, and the binding signal was 0.0724 KA relative to UGCAUGU. With B30 the binding signal was 0.0481 KA relative to UGCAUGU. For B31, the binding signal was 0.117 KA relative to UGCAUGU.
